Results reported in the supplement of paper PMC8183993.
Counter-ions that a name gives are not always drawn. ± gives the standard deviation of the averaged measurements. Over roughly 3,100 compounds, “mean cytoplasmic OPP incorporation (global translation) relative to DMSO” has its median near 100; the lowest 2% begin near 56. This is one part of the list.

Test system: U2OS
Experiment: mean cytoplasmic OPP incorporation (global translation) relative to DMSO (% of DMSO); higher = more protein synthesis
Settings: 10 µM; 24 h
Protocol: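 Primary image-based screen in U2OS cells: compounds at 10 uM for 24 h, then a 1 h o-propargyl-puromycin (OPP) pulse, click labelling, and high-throughput microscopy. Mean cytoplasmic OPP intensity and nuclei count were normalised to DMSO wells within each plate (DMSO = 100) and averaged over triplicate plates.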

SMILES	mean cytoplasmic OPP incorporation
COc1ccc2[nH]c(I)c(CCNC(C)=O)c2c1 [2-Iodomelatonin]	99.4
C[C@@H]1[C@H](O)[C@@H](C)/C=C/C=C/C=C/C=C/C=C/C=C/C=C/[C@H](O[C@@H]2O[C@H](C)[C@@H](O)[C@H](N)[C@@H]2O)C[C@@H]2O[C@](O)(C[C@@H](O)C[C@@H](O)[C@H](O)CC[C@@H](O)C[C@@H](O)CC(=O)O[C@H]1C)C[C@H](O)[C@H]2C(=O)O [Amphotericin B]	98.8
C[C@@H]1[C@H](O)[C@@H](C)/C=C/C=C/C=C/C=C/C=C/C=C/C=C/[C@H](O[C@@H]2O[C@H](C)[C@@H](O)[C@H](N)[C@@H]2O)C[C@@H]2O[C@](O)(C[C@@H](O)C[C@@H](O)[C@H](O)CC[C@@H](O)C[C@@H](O)CC(=O)O[C@H]1C)C[C@H](O)[C@H]2C(=O)O [Amphotericin B (Abelcet)]	104
CC[C@H](CC[C@@H](C)[C@H]1CC[C@H]2[C@@H]3CC=C4C[C@@H](O)CC[C@]4(C)[C@H]3CC[C@]12C)C(C)C [?-Sitosterol]	97.3
O=C(O)CC[C@H]1CC[C@@](c2cc(F)ccc2F)(S(=O)(=O)c2ccc(Cl)cc2)CC1	107
C/C=C1\NC(=O)[C@H]2CSSCC/C=C/[C@H](CC(=O)N[C@H](C(C)C)C(=O)N2)OC(=O)[C@H](C(C)C)NC1=O [Romidepsin (FK228 ,depsipeptide)]	62.7
COc1ccc2c(c1)N(C[C@H](C)CN(C)C)c1ccccc1S2 [Methotrimeprazine maleat salt]	105
CCCN(CCC)C(=O)C(CCC(=O)O)NC(=O)c1ccccc1 (centres undefined) [Proglumide]	105
CCN1C(=O)NC(c2ccccc2)C1=O (centres undefined) [Ethotoin]	102
Nc1nc(N)c2nc(-c3cccc(O)c3)cnc2n1	88.9 ± 1.7
CN1CCC(=C2c3ccccc3CC(=O)c3sccc32)CC1 [Ketotifen fumarate]	109 ± 9.3
Cc1nnc(-c2ccc3occ(-c4ccc([S+](C)[O-])cc4)c3c2)o1 (centres undefined)	105
CN1CCCC(CC2c3ccccc3Sc3ccccc32)C1 (centres undefined) [Metixene hydrochloride]	104
COc1ccccc1N1CCN(CC(O)COc2cccc3ccccc23)CC1 (centres undefined) [Naftopidil hydrochloride]	112
COc1ccccc1N1CCN(CC(O)COc2cccc3ccccc23)CC1 (centres undefined) [Naftopidil dihydrochloride]	116
CC(C)(C)C(=O)OCOP(=O)(COCCn1cnc2c(N)ncnc21)OCOC(=O)C(C)(C)C [Adefovir Dipivoxil (Preveon, Hepsera)]	111
Cc1ccc(NC(=O)C(C)C)cc1C1CCN(Cc2ccc(Oc3ccc(F)c(F)c3)cc2)CC1	108
COc1cc(OC)c(C(=O)CCCN2CCCC2)c(OC)c1 [Buflomedil hydrochloride]	97.3
N#CC(c1ccc(Cl)cc1)c1c(Cl)cc(-n2ncc(=O)[nH]c2=O)cc1Cl (centres undefined) [Diclazuril]	92.5
O=c1ccc2ccc(O)c(O)c2o1 [Daphnetin]	103
Nc1c(Br)cc(Br)cc1CN[C@H]1CC[C@H](O)CC1 [Ambroxol hydrochloride]	97 ± 9.2
Nc1c(Br)cc(Br)cc1CN[C@H]1CC[C@H](O)CC1 [Ambroxol]	105
Cn1ccnc1S [Methimazole (Tapazole, Northyx)]	98.3
Cn1ccnc1S [Methimazole]	97.7
CC1Nc2ccc(Cl)cc2S(=O)(=O)N1 (centres undefined)	101

SMILES	mean cytoplasmic OPP incorporation
Nc1ccc(-c2nc3ccc(-c4nc5ccc(N)cc5[nH]4)cc3[nH]2)cc1	96.5
C=CC(=O)Nc1cccc(Nc2nc(Nc3ccc(N4CCN(C(C)=O)CC4)cc3OC)ncc2C(F)(F)F)c1	95.1
CS(=O)(=O)CCNCc1ccc(-c2ccc3ncnc(Nc4ccc(OCc5cccc(F)c5)c(Cl)c4)c3c2)o1 [Lapatinib Ditosylate (Tykerb)]	118
COC(=O)c1sccc1S(=O)(=O)Nc1ccc(Nc2ccccc2)cc1OC	91.1
CC(C)(Sc1cc(C(C)(C)C)c(O)c(C(C)(C)C)c1)Sc1cc(C(C)(C)C)c(O)c(C(C)(C)C)c1 [Probucol]	104.4 ± 1
O=c1cc(N2CCNCC2)oc2c(-c3ccccc3)cccc12	102
COc1cc2ncc(-c3ccccc3)nc2cc1OC [Tyrphostin AG 1296 (AG 1296)]	92.8
COc1cc(Nc2ncc(F)c(Nc3ccc4c(n3)NC(=O)C(C)(C)O4)n2)cc(OC)c1OC [R406(free base)]	88.5
COc1cc(Nc2ncc(F)c(Nc3ccc4c(n3)NC(=O)C(C)(C)O4)n2)cc(OC)c1OC	86.6
CC(C)(Oc1ccc(Cl)cc1)C(=O)O [Clofibric acid]	102 ± 4.6
CC(=O)[C@@]1(O)CC[C@H]2[C@@H]3CCC4=CC(=O)CCC4=C3[C@@H](c3ccc(N(C)C)cc3)C[C@@]21C [Ulipristal]	112
COc1ccc(C(=O)Nc2sc3c(c2C(N)=O)CCCC3)cc1OC	98.4 ± 1.2
CN(C)CC/C=C1\c2ccccc2CSc2ccccc21 [Dosulepin hydrochloride]	100
O=NO [Sodium Nitrite]	97
CC(N)(Cc1ccc(O)c(O)c1)C(=O)O [L-(-)- _-Methyldopa]	103
Cc1ccc(NC(=O)c2ccc(CN3CC[C@H](N(C)C)C3)c(C(F)(F)F)c2)cc1Nc1nccc(-c2cncnc2)n1 [Bafetinib (INNO-406)]	118
CC(C)(S)[C@@H](N)C(=O)O [Penicillamine]	109
COc1ccc(-c2ccc(=N)n(CCCC(=O)O)n2)cc1 [Gabazine bromide]	107
COc1ccc(-c2ccc(=N)n(CCCC(=O)O)n2)cc1	98.6
CO[C@H]1C[C@H](O[C@H]2[C@H](C)[C@@H](O[C@@H]3O[C@H](C)C[C@H](N(C)C)[C@H]3OC(C)=O)[C@@H](C)C[C@@]3(CO3)C(=O)[C@H](C)[C@@H](OC(C)=O)[C@@H](C)[C@@H](C)OC(=O)[C@@H]2C)O[C@@H](C)[C@@H]1OC(C)=O [Troleandomycin]	106
Cc1cc(C(=O)NNCc2ccccc2)no1 [Isocarboxazid]	106
Cn1c(=O)c2c(ncn2CC(=O)O)n(C)c1=O [Acefylline]	104
CS(=O)(=O)c1cccc(CNc2nc(Nc3ccc4c(c3)CCC(=O)N4)ncc2C(F)(F)F)c1	110 ± 24
CC1(C)CCC(CN2CCN(c3ccc(C(=O)NS(=O)(=O)c4ccc(NCC5CCOCC5)c([N+](=O)[O-])c4)c(Oc4cnc5[nH]ccc5c4)c3)CC2)=C(c2ccc(Cl)cc2)C1	117
CCCCCCCCCCC[C@@H](C[C@@H]1OC(=O)[C@H]1CCCCCC)OC(=O)[C@H](CC(C)C)NC=O [Orlistat]	105

SMILES	mean cytoplasmic OPP incorporation
CCCCCCCCCCC[C@@H](C[C@@H]1OC(=O)[C@H]1CCCCCC)OC(=O)[C@H](CC(C)C)NC=O [Orlistat (Alli, Xenical)]	103
CCN(CC)CCNc1ccc(CO)c2sc3ccccc3c(=O)c12 [Hycanthone]	89.7
CNC(C)CCC=C(C)C (centres undefined) [Isometheptene mucate]	107
O=C(COc1ccc(Cl)cc1)N1CCN(Cc2ccc3c(c2)OCO3)CC1 [Fipexide hydrochloride]	97.9
CN(Cc1cnc2nc(N)nc(N)c2n1)c1ccc(C(=O)N[C@@H](CCC(=O)O)C(=O)O)cc1 (racemic) [Amethopterin (R,S)]	101
CN(Cc1cnc2nc(N)nc(N)c2n1)c1ccc(C(=O)N[C@@H](CCC(=O)O)C(=O)O)cc1 [Methotrexate]	94.3 ± 14
Nc1nc(NC2CC2)c2ncn([C@H]3C=C[C@@H](CO)C3)c2n1 [Abacavir Sulfate]	94.4
COc1cc(C(C)=O)ccc1O [Apocynin (Acetovanillone)]	105
CCCn1c(=O)[nH]c2nc(-c3ccc(S(=O)(=O)O)cc3)[nH]c2c1=O	99.9
CC(Cc1ccc(O)c(O)c1)(NN)C(=O)O [(S)-(-)-Carbidopa]	101
CCCCCCCCCCCCCCCCOP(=O)([O-])OCC[N+](C)(C)C [Miltefosine (Hexadecylphosphocholine)]	104
Cc1ccsc1/C=C/C1=NCCCN1C [Morantel tartrate]	97.9
CN(C)c1ccc(O)c2c1C[C@H]1C[C@H]3[C@H](N(C)C)C(O)=C(C(N)=O)C(=O)[C@@]3(O)C(O)=C1C2=O [Minocycline hydrochloride]	104
Cn1cccc1/C=C1\C(=O)NC(=O)c2ccccc21	89.4
COc1cc2c(CCNC(C)=O)c[nH]c2cc1Cl [6-Chloromelatonin]	106
Cc1ccc(S(=O)(=O)NC(=O)NN2CCCCCC2)cc1 [Tolazamide]	102 ± 6
C=CC(C)(C)c1cc(/C=C/C(=O)c2ccc(O)cc2)c(OC)cc1O [Licochalcone A]	90.4
C[C@]12CC[C@@H]3c4ccc(OS(=O)(=O)O)cc4CC[C@H]3[C@@H]1CCC2=O [Estropipate]	101
CCOC(=O)c1ccc(N)cc1 [Benzocaine]	102
C[C@H]1[C@H](C)CC[C@]2(C(=O)O)CC[C@]3(C)C(=CC[C@@H]4[C@@]5(C)C[C@@H](O)[C@H](O)[C@@](C)(CO)[C@@H]5CC[C@]43C)[C@H]12 [Asiatic acid]	99.67 ± 0.16
CCN(CC)CCOC(=O)C(c1ccccc1)c1ccccc1 [Adiphenine hydrochloride]	105
OC(CCCN1CCCCC1)(c1ccccc1)c1ccccc1 [Diphenidol hydrochloride]	92.9
CC1c2ccccc2CN1CC1=NCCN1 (centres undefined)	99.8
CCCCCCCCCCCCc1ccc(S(=O)(=O)Nc2nncs2)cc1	101.8 ± 0.36
